Measurements from PMC4336329 (PLoS ONE, 2015).
Out of some 310,000 compounds screened, about 2,200 (0.71%) showed an effect of 50% or more. Effects have a minus sign here. Some of the results follow.

target: human ether-à-go-go-related gene (hERG) potassium channel (human, UniProt Q12809); test: primary screen, population patch clamp on CHO cells stably expressing hERG
Sequence (Q12809 whole entry, looked up): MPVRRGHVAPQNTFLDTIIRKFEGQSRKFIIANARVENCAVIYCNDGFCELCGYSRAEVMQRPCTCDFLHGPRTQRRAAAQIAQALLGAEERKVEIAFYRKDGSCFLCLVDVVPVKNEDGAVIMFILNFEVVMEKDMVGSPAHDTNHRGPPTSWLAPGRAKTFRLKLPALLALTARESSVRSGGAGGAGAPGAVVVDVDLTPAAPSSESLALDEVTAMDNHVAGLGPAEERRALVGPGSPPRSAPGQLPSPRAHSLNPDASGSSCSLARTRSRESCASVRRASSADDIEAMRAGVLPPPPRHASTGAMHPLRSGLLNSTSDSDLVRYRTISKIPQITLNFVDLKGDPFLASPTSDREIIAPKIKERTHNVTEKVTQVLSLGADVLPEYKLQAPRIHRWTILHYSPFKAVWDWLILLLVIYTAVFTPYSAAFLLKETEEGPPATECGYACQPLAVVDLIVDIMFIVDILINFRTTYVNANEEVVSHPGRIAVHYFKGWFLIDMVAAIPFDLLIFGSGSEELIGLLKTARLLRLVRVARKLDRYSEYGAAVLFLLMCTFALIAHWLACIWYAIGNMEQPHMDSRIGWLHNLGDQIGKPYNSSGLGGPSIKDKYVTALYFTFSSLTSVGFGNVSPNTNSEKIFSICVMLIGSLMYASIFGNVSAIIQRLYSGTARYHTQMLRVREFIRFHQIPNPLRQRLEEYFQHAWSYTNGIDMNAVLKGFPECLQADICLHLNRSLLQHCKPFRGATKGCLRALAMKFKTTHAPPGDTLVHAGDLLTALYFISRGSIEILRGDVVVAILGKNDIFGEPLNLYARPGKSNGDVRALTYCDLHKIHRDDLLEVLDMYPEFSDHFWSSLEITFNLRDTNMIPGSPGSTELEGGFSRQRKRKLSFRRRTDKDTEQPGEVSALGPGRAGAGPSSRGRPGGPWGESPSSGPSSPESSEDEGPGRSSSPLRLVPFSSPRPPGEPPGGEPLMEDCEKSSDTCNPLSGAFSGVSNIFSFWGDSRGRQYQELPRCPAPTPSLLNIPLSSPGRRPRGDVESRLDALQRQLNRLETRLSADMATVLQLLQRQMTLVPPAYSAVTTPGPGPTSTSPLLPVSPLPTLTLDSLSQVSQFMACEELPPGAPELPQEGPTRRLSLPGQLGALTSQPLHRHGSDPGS

Row | SMILES | hERG current change (%, negative = inhibition) at 1uM
1 | CCCCn1c(SCC(=O)OC)nc2c1c(=O)n(C)c(=O)n2C | 3.17%
2 | CCOC(=O)c1ccc(CNC(=O)c2cc(COc3ccccc3SC)on2)o1 | -2.59%
3 | COc1cc(SC#N)ccc1N=Cc1c(C)[nH]n(-c2ccc(C)cc2C)c1=O | 2.31%
4 | CCOc1cc(CNc2ccc(N3CCOCC3)cc2)cc(Br)c1OCC | 17.2%
5 | CCOc1ccc(CC(=O)NNC(=O)NC2CCCCC2)cc1 | 14.2%
6 | CN(C)c1cc[n+](CC(=O)N2c3ccccc3Sc3ccccc32)cc1.[Cl-] | 3.77%
7 | O=C(O)C1Cc2ccccc2CN1C(=O)COc1ccc(Cl)cc1Cl (centres unmarked) | 10%
8 | CC1=CC(C)(C)N(C(=O)CN2C(=O)c3ccccc3C2=O)c2ccccc21 | 7.7%
9 | NC[C@H](O)c1ccc(O)c(O)c1.O.O=C(O)C(O)C(O)C(=O)O | 8.62%
10 | NN/C(=C\[N+](=O)[O-])Nc1ccc(Cl)cc1 | 18.9%
11 | Cc1ccc(C(=O)COC(=O)CNC(=O)c2ccc(N3C(=O)c4ccccc4C3=O)cc2)cc1C | 11.6%
12 | CCOc1ccccc1OCC(=O)OCC(=O)c1c(N)n(CC(C)C)c(=O)n(C)c1=O | -9.86%
13 | CC1CCN(c2oc(-c3cccc4ccccc34)nc2C#N)CC1 | 10.2%
14 | Cc1ccc(OCC(=O)N2CCN(C(=O)Cc3ccccc3)CC2)cc1 | -9.66%
15 | CCOc1ccc(S(=O)(=O)N2CCCC(C(=O)Nc3ccccc3)C2)cc1 (centres unmarked) | 10.6%
16 | Cc1ccccc1C(=O)Nc1ccc(C(=O)O)cc1NC(=O)c1ccccc1C | 13.8%
17 | CCOc1ccc(-c2csc(NC(=O)c3cccc(N4C(=O)CCC4=O)c3)n2)cc1 | 13.5%
18 | Cc1cccc(-c2ncc(S(=O)(=O)C(C)(C)C)c(N)n2)c1 | 11.7%
19 | O=C(Nc1ccnc(-c2ccncc2)n1)c1cccs1 | -5.67%
20 | COc1ccccc1/C=C/C=c1\sc2nc(=O)c(Cc3ccccc3)nn2c1=O | 12.4%
21 | Cc1cc(NC(=O)c2cnn3cccnc23)nn1CC(=O)Nc1cccnc1 | 8.53%
22 | N#Cc1cccc(C(=O)Nc2cccc(S(=O)(=O)N3CCCC3)c2)c1 | 8.83%

Row | SMILES | hERG current change (%, negative = inhibition) at 1uM
23 | O=S(=O)(Nc1ccc(S(=O)(=O)Nc2cccc3ccccc23)cc1)c1ccccc1 | 11%
24 | O=C1C=C(Nc2cccc(O)c2)CC(c2ccco2)C1 (centres unmarked) | 2.89%
25 | Cc1ccc(S(=O)(=O)N[C@@H](CC(C)C)C(=O)N2CCC(C(=O)N[C@@H](Cc3ccccc3)C(=O)O)CC2)cc1 | 10.8%
26 | Cc1onc(-c2ccccc2Cl)c1C(=O)NC(=S)Nc1ccccc1C(N)=O | 7.18%
27 | CCOC(=O)c1ccc(NC(=S)NCCCN2CCN(C3CCCCC3)CC2)cc1 | -2.46%
28 | O=C(NC(=S)NNC(=O)c1ccccc1[N+](=O)[O-])c1ccc(Br)cc1 | 15.2%
29 | CCc1nc(SCc2ccc(OCC(C)C)cc2)n[nH]1 | 7.29%
30 | O=C(Cc1ccccc1)NNC(=O)C1CCN(c2ncccn2)CC1 | 7.9%
31 | Cl.O=C(OCCN1CCCCC1)c1cccc(F)c1 | 5.77%
32 | CCOc1ccc(-n2c(SCC(=O)Nc3ccc(CC)cc3)nc3n[nH]c(C)c3c2=N)cc1 | 7.85%
33 | CCOc1ccccc1N(C)S(=O)(=O)c1ccc2[nH]cc(C(=O)N(CCOC)CCOC)c(=O)c2c1 | 1.98%
34 | O=C(COC(=O)c1cccc(O)c1)Nc1ccc(S(=O)(=O)N2CCOCC2)cc1 | 8.4%
35 | Nc1ccccc1C(O)(Cc1ccccc1)c1ccccc1 (centres unmarked) | 13.6%
36 | CCCCC(=O)Nc1ccc(C(=O)Nc2ccc(S(=O)(=O)Nc3nccc(C)n3)cc2)cc1 | 12.5%
37 | CNc1ccccc1NC(=O)C1CCCN1C(=O)OCc1ccccc1 (centres unmarked) | 0.618%
38 | CN(C(=O)Nc1ccc(Cl)cc1)c1c2c(nn1C)CCCC2 | 11.9%
39 | Cn1c(=O)c(C(=O)CN2CCCc3ccccc32)c(N)n(Cc2ccccc2)c1=O | 19.5%
40 | O=C(NCCCl)Nc1ccc(Cl)c([N+](=O)[O-])c1 | 5.53%
41 | C#Cc1ccc([C@@H]2C=C(C(=O)O)O[C@H](OCC)[C@H]2CCCO)cc1 | 19.9%
42 | Cc1ccccc1CSc1nnc(NC(=O)C2COc3ccccc3O2)s1 (centres unmarked) | 1.07%
43 | COC(=O)c1cc(NC(=O)C2(S(=O)(=O)c3ccc(Cl)cc3)CC2)cc(C(=O)OC)c1 | -5.65%
44 | CCOc1ccc(S(=O)(=O)c2c[nH]c3ccccc3c2=O)cc1 | 8.01%
